Consider 63 sequences from the BET-seq Pho4 binding data (Le et al. 2018).

Some of the results follow. The energies were worked out here from pooled read counts, against the library average; single values are noisy.

In the test the target is T1, Pho4 (S. cerevisiae) (UniProt P07270).
T1 sequence: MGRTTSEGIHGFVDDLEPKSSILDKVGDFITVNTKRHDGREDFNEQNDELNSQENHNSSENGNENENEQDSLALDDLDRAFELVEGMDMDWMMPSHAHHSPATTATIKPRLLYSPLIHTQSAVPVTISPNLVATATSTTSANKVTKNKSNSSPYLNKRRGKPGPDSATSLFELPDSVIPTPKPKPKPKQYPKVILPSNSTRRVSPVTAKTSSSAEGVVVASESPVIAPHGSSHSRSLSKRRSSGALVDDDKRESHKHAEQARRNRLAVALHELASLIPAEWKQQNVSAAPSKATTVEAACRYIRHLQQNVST
In words: relative binding free energy (BET-seq); higher = weaker binding. The following applies: reference: library average.
As for ATATGCACGTGCTCGT, the “relative binding free energy” value was determined as 0.0837 kJ/mol.

For the sequence GAGAGCACGTGTATGG, the “relative binding free energy” value was -0.335 kJ/mol.

As for AGGTGCACGTGCGTGC, the “relative binding free energy” value was -1 kJ/mol.

Turning to GGTTTCACGTGGCGTA, the “relative binding free energy” value was determined as 0.753 kJ/mol.

For the sequence ATGCACACGTGTGTTG, the “relative binding free energy” value was 0 kJ/mol.

ATCGTCACGTGGGTAA: the “relative binding free energy” value was -0.46 kJ/mol.

Consider GTTCGCACGTGAGTAT, for which the “relative binding free energy” value came out at 0.628 kJ/mol.

As for AGTTGCACGTGTTTGT, the “relative binding free energy” value is -0.251 kJ/mol.

In the case of TGTTGCACGTGGCTCA, the “relative binding free energy” value is -0.0418 kJ/mol.

Take GGGTGCACGTGGTCTG: the “relative binding free energy” value was -0.167 kJ/mol.

For AGGAGCACGTGTAGAG, the “relative binding free energy” value is -0.167 kJ/mol.

Turning to TGGGGCACGTGGAATT, the “relative binding free energy” value amounted to 0.0837 kJ/mol.

On to TATGGCACGTGATTGG, for which the “relative binding free energy” value turned out to be 0.0837 kJ/mol.

On to GTCGGCACGTGAGTTT, for which the “relative binding free energy” value was 0.962 kJ/mol.

For ATGAGCACGTGTTATC, the “relative binding free energy” value stood at 0.377 kJ/mol.

With GTTAGCACGTGCTTGG, the “relative binding free energy” value is -0.377 kJ/mol.

GCAAGCACGTGTGGTT: the “relative binding free energy” value is -0.209 kJ/mol.

Consider TTTCTCACGTGGATTG, for which the “relative binding free energy” value worked out at 1.05 kJ/mol.

As to GGTGACACGTGTAATT, the “relative binding free energy” value came to 1 kJ/mol.

ATTGGCACGTGCAGGA: the “relative binding free energy” value is -0.669 kJ/mol.

Take CGTGGCACGTGTGCTG: the “relative binding free energy” value was -0.795 kJ/mol.

CATGGCACGTGAAGGG: the “relative binding free energy” value turned out to be 0.92 kJ/mol.

Take TGTTTCACGTGCTATG: the “relative binding free energy” value amounted to 1.21 kJ/mol.

For the sequence TTTCCCACGTGGGGTT, the “relative binding free energy” value is -0.837 kJ/mol.

Turning to CGTGTCACGTGTTCGG, the “relative binding free energy” value was found to be 0.46 kJ/mol.

As for GACAACACGTGTGGTG, the “relative binding free energy” value was 0.586 kJ/mol.

For the sequence AAATACACGTGTTATG, the “relative binding free energy” value was found to be 0.544 kJ/mol.

With TGGGTCACGTGCTTCG, the “relative binding free energy” value turned out to be 0.879 kJ/mol.

As to TTATGCACGTGGGTGA, the “relative binding free energy” value was -0.753 kJ/mol.

On to AGGTACACGTGGGGGG, for which the “relative binding free energy” value was -0.335 kJ/mol.

With TAATACACGTGGGGGT, the “relative binding free energy” value is -0.209 kJ/mol.

As to TGGTCCACGTGGGTGG, the “relative binding free energy” value is -0.46 kJ/mol.

As to GAATTCACGTGTGTGT, the “relative binding free energy” value was 1.59 kJ/mol.

With TTCGTCACGTGGTGTA, the “relative binding free energy” value was 0.377 kJ/mol.

As to TGGGTCACGTGTAGCA, the “relative binding free energy” value was 0.586 kJ/mol.

Take GTGGACACGTGGGAAT: the “relative binding free energy” value came to 0.335 kJ/mol.

Consider GTTATCACGTGTGCTT, for which the “relative binding free energy” value is 0.628 kJ/mol.

Regarding TATGACACGTGTGGCA, the “relative binding free energy” value came to 0.46 kJ/mol.

Turning to AGTTCCACGTGTGAGT, the “relative binding free energy” value worked out at 0.0418 kJ/mol.

With TGGTGCACGTGCAATT, the “relative binding free energy” value worked out at 0.209 kJ/mol.

In the case of TCGGTCACGTGGGTAC, the “relative binding free energy” value is -0.0837 kJ/mol.

Regarding AAAGGCACGTGAATTG, the “relative binding free energy” value worked out at 1 kJ/mol.

In the case of ATTGTCACGTGTGTTT, the “relative binding free energy” value was 0.335 kJ/mol.

For the sequence CAGTCCACGTGGTGTG, the “relative binding free energy” value is -0.669 kJ/mol.

Consider TTACTCACGTGAGTGT, for which the “relative binding free energy” value was determined as 0.795 kJ/mol.

Turning to GGAGTCACGTGCGGGA, the “relative binding free energy” value was found to be 0.377 kJ/mol.

Consider GGTTGCACGTGCAGAG, for which the “relative binding free energy” value turned out to be 0.0837 kJ/mol.

Turning to TGGTGCACGTGATTTT, the “relative binding free energy” value amounted to 0.544 kJ/mol.

Consider TGCGGCACGTGTGGGA, for which the “relative binding free energy” value came to 0.167 kJ/mol.

For the sequence TGGAGCACGTGTTTCA, the “relative binding free energy” value is -0.544 kJ/mol.

TGGTTCACGTGAGGTC: the “relative binding free energy” value was 1.88 kJ/mol.

In the case of GTAGTCACGTGCAAGT, the “relative binding free energy” value worked out at 0.711 kJ/mol.

Turning to CGTTACACGTGTCGGT, the “relative binding free energy” value turned out to be 0.962 kJ/mol.

For the sequence GGTGGCACGTGGAGCA, the “relative binding free energy” value was -0.837 kJ/mol.

For GACCGCACGTGTTGGG, the “relative binding free energy” value is 0.377 kJ/mol.

In the case of CTGTGCACGTGTGCGT, the “relative binding free energy” value is -0.0418 kJ/mol.

For the sequence GTCTGCACGTGTAAGG, the “relative binding free energy” value is 0.879 kJ/mol.

For the sequence AATATCACGTGTGGAA, the “relative binding free energy” value is 0.628 kJ/mol.

On to GGCCGCACGTGGTGGG, for which the “relative binding free energy” value was -0.293 kJ/mol.

GATTCCACGTGGTATG: the “relative binding free energy” value stood at 0.418 kJ/mol.

With CTTAACACGTGGTTTT, the “relative binding free energy” value was determined as 0.167 kJ/mol.

For the sequence TGTGCCACGTGTCTGT, the “relative binding free energy” value was -0.669 kJ/mol.

In the case of GGAGTCACGTGCGGCG, the “relative binding free energy” value was determined as 0.167 kJ/mol.
